# Laboratory results: the supplement of paper PMC8728848
# The other results are listed elsewhere or left out.
# B1: SSP1 (Sclerotinia sclerotiorum), XP_001584968 (protein)
# chain: MGSSHHHHHHSSGLVPRGSHMSLLTTELACTSAPDQVLHLFFQDGQNILEARSPDGGNVWTTQDTIIAKDGDYNGSSMTCYYVDKDANFDNQPSIHLLYMNKDKQLTEKVKRMKGDNPIWEDAKVPDEVRKGPEQYSKLTSGSFNQGTGWNPNGSQWAYFSASKDGKMGIVEIRRTPKDPWHTETILEEKWGDELPGTALACVIGNGKIRVFLQHHDYSIILYENQNNTWHDRGTFIPKDKVQATTPLACTMTKDGSVHLFYVSKSNKIIHCTDGKKEEELINFFPGSKLGATSVENKITLFFRNLNPVNEVGTLENENGSWKHGTTVIPA
# Columns and labels:
# Assay in all cases: glycan array binding signal (z-score within array); higher = stronger binding
# Conditions in all cases: glycan notation: IUPAC condensed, linker removed
# Neu5Ac(a2-3)Gal = target: Neu5Ac(a2-3)Gal
# How it was run: (§1)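 The binding signal is a Z-score computed within each array and averaged over linkers. Arrays of the same protein sequence at different concentrations or buffers were also averaged together. Data originate from 3228 arrays in the Consortium for Functional Glycomics database, kept only where the protein sequence was available.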
# [1] = target: Neu5Ac(a2-3)Gal(b1-3)GalNAc
# How it was run: as §1
# [2] = target: Neu5Ac(a2-3)Gal(b1-3)GalNAc(b1-3)Gal(a1-4)Gal(b1-4)Glc
# How it was run: as §1
# [3] = target: Neu5Ac(a2-3)Gal(b1-3)GalNAc(b1-4)[Neu5Ac(a2-3)]Gal(b1-4)Glc
# How it was run: as §1
# [4] = target: Neu5Ac(a2-3)Gal(b1-3)GalNAc(b1-4)[Neu5Ac(a2-8)Neu5Ac(a2-3)]Gal(b1-4)Glc
# How it was run: as §1
# [5] = target: Neu5Ac(a2-3)Gal(b1-3)GalNAc6S
# How it was run: as §1
# [6] = target: Neu5Ac(a2-3)Gal(b1-3)GlcNAc
# How it was run: as §1
# [7] = target: Neu5Ac(a2-3)Gal(b1-3)GlcNAc(b1-2)Man
# How it was run: as §1
# [8] = target: Neu5Ac(a2-3)Gal(b1-3)GlcNAc(b1-2)Man(a1-3)[GlcNAc(b1-4)][Neu5Ac(a2-3)Gal(b1-3)GlcNAc(b1-2)Man(a1-6)]Man(b1-4)GlcNAc(b1-4)GlcNAc
# How it was run: as §1
# [9] = target: Neu5Ac(a2-3)Gal(b1-3)GlcNAc(b1-2)Man(a1-3)[Neu5Ac(a2-3)Gal(b1-3)GlcNAc(b1-2)Man(a1-6)]Man(b1-4)GlcNAc(b1-4)GlcNAc
# How it was run: as §1
# [10] = target: Neu5Ac(a2-3)Gal(b1-3)GlcNAc(b1-3)Gal(b1-3)GlcNAc
# How it was run: as §1
# [11] = target: Neu5Ac(a2-3)Gal(b1-3)GlcNAc(b1-3)Gal(b1-4)GlcNAc
# How it was run: as §1
# [12] = target: Neu5Ac(a2-3)Gal(b1-3)GlcNAc(b1-3)GalNAc
# How it was run: as §1
# [13] = target: Neu5Ac(a2-3)Gal(b1-3)GlcNAc(b1-4)Gal(b1-4)Glc
# How it was run: as §1
# [14] = target: Neu5Ac(a2-3)Gal(b1-3)GlcNAc(b1-6)GalNAc
# How it was run: as §1
# [15] = target: Neu5Ac(a2-3)Gal(b1-3)GlcNAc6S
# How it was run: as §1
# [16] = target: Neu5Ac(a2-3)Gal(b1-3)[Fuc(a1-4)]GlcNAc
# How it was run: as §1
# [17] = target: Neu5Ac(a2-3)Gal(b1-3)[Fuc(a1-4)]GlcNAc(b1-3)Gal(b1-3)[Fuc(a1-4)]GlcNAc
# How it was run: as §1
# [18] = target: Neu5Ac(a2-3)Gal(b1-3)[Fuc(a1-4)]GlcNAc(b1-3)Gal(b1-4)[Fuc(a1-3)]GlcNAc
# How it was run: as §1
# [19] = target: Neu5Ac(a2-3)Gal(b1-3)[GlcNAc(b1-6)]GalNAc
# How it was run: as §1
# [20] = target: Neu5Ac(a2-3)Gal(b1-3)[Neu5Ac(a2-6)]GalNAc
# How it was run: as §1
# [21] = target: Neu5Ac(a2-3)Gal(b1-3)[Neu5Ac(a2-6)]GlcNAc(b1-3)[Fuc(a1-3)[Gal(b1-4)]GlcNAc(b1-6)]Gal(b1-4)Glc
# How it was run: as §1
# [22] = target: Neu5Ac(a2-3)Gal(b1-3)]Neu5Ac(a2-3)Gal(b1-4)]GlcNAc
# How it was run: as §1
# Neu5Ac(a2-3)Gal(b1-4)Glc = target: Neu5Ac(a2-3)Gal(b1-4)Glc
# How it was run: as §1
# [23] = target: Neu5Ac(a2-3)Gal(b1-4)GlcNAc
# How it was run: as §1
# [24] = target: Neu5Ac(a2-3)Gal(b1-4)GlcNAc(b1-2)Man
# How it was run: as §1
# [25] = target: Neu5Ac(a2-3)Gal(b1-4)GlcNAc(b1-2)Man(a1-3)[GlcNAc(b1-4)][Neu5Ac(a2-3)Gal(b1-4)GlcNAc(b1-2)Man(a1-6)]Man(b1-4)GlcNAc(b1-4)GlcNAc
# How it was run: as §1
# [26] = target: Neu5Ac(a2-3)Gal(b1-4)GlcNAc(b1-2)Man(a1-3)[Neu5Ac(a2-3)Gal(b1-4)GlcNAc(b1-2)Man(a1-6)]Man(b1-4)GlcNAc(b1-4)GlcNAc
# How it was run: as §1
# [27] = target: Neu5Ac(a2-3)Gal(b1-4)GlcNAc(b1-2)Man(a1-3)[Neu5Ac(a2-3)Gal(b1-4)GlcNAc(b1-2)Man(a1-6)]Man(b1-4)GlcNAc(b1-4)[Fuc(a1-6)]GlcNAc
# How it was run: as §1
# [28] = target: Neu5Ac(a2-3)Gal(b1-4)GlcNAc(b1-2)Man(a1-3)[Neu5Ac(a2-6)Gal(b1-4)GlcNAc(b1-2)Man(a1-6)]Man(b1-4)GlcNAc(b1-4)GlcNAc
# How it was run: as §1
# [29] = target: Neu5Ac(a2-3)Gal(b1-4)GlcNAc(b1-2)[Neu5Ac(a2-3)Gal(b1-4)GlcNAc(b1-4)]Man(a1-3)[GlcNAc(b1-4)][Neu5Ac(a2-3)Gal(b1-4)GlcNAc(b1-2)[Neu5Ac(a2-3)Gal(b1-4)GlcNAc(b1-6)]Man(a1-6)]Man(b1-4)GlcNAc(b1-4)GlcNAc
# How it was run: as §1
# [30] = target: Neu5Ac(a2-3)Gal(b1-4)GlcNAc(b1-2)[Neu5Ac(a2-3)Gal(b1-4)GlcNAc(b1-4)]Man(a1-3)[GlcNAc(b1-4)][Neu5Ac(a2-3)Gal(b1-4)GlcNAc(b1-4)Man(a1-6)]Man(b1-4)GlcNAc(b1-4)GlcNAc
# How it was run: as §1
# [31] = target: Neu5Ac(a2-3)Gal(b1-4)GlcNAc(b1-2)[Neu5Ac(a2-3)Gal(b1-4)GlcNAc(b1-6)]Man(a1-6)[Neu5Ac(a2-3)Gal(b1-4)GlcNAc(b1-2)Man(a1-3)]Man(b1-4)GlcNAc(b1-4)GlcNAc
# How it was run: as §1
# [32] = target: Neu5Ac(a2-3)Gal(b1-4)GlcNAc(b1-2)[Neu5Ac(a2-3)Gal(b1-4)GlcNAc(b1-6)]Man(a1-6)[Neu5Ac(a2-3)Gal(b1-4)GlcNAc(b1-2)Man(a1-3)][GlcNAc(b1-4)]Man(b1-4)GlcNAc(b1-4)GlcNAc
# How it was run: as §1
# [33] = target: Neu5Ac(a2-3)Gal(b1-4)GlcNAc(b1-3)Gal
# How it was run: as §1
# [34] = target: Neu5Ac(a2-3)Gal(b1-4)GlcNAc(b1-3)Gal(b1-3)GlcNAc
# How it was run: as §1
# [35] = target: Neu5Ac(a2-3)Gal(b1-4)GlcNAc(b1-3)Gal(b1-4)GlcNAc
# How it was run: as §1
# [36] = target: Neu5Ac(a2-3)Gal(b1-4)GlcNAc(b1-3)Gal(b1-4)GlcNAc(b1-2)Man(a1-3)[Neu5Ac(a2-3)Gal(b1-4)GlcNAc(b1-3)Gal(b1-4)GlcNAc(b1-2)Man(a1-6)]Man(b1-4)GlcNAc(b1-4)GlcNAc
# How it was run: as §1
# [37] = target: Neu5Ac(a2-3)Gal(b1-4)GlcNAc(b1-3)Gal(b1-4)GlcNAc(b1-3)Gal(b1-4)GlcNAc
# How it was run: as §1
# [38] = target: Neu5Ac(a2-3)Gal(b1-4)GlcNAc(b1-3)Gal(b1-4)GlcNAc(b1-3)Gal(b1-4)GlcNAc(b1-2)Man(a1-3)[Neu5Ac(a2-3)Gal(b1-4)GlcNAc(b1-3)Gal(b1-4)GlcNAc(b1-3)Gal(b1-4)GlcNAc(b1-2)Man(a1-6)]GalNAc
# How it was run: as §1
# [39] = target: Neu5Ac(a2-3)Gal(b1-4)GlcNAc(b1-3)Gal(b1-4)GlcNAc(b1-3)GalNAc
# How it was run: as §1
# [40] = target: Neu5Ac(a2-3)Gal(b1-4)GlcNAc(b1-3)Gal(b1-4)GlcNAc(b1-3)[Neu5Ac(a2-3)Gal(b1-4)GlcNAc(b1-3)Gal(b1-4)GlcNAc(b1-6)]GalNAc
# How it was run: as §1
# [41] = target: Neu5Ac(a2-3)Gal(b1-4)GlcNAc(b1-3)Gal(b1-4)GlcNAc(b1-6)[Gal(b1-3)]GalNAc
# How it was run: as §1
# [42] = target: Neu5Ac(a2-3)Gal(b1-4)GlcNAc(b1-3)Gal(b1-4)[Fuc(a1-3)]GlcNAc
# How it was run: as §1
# [43] = target: Neu5Ac(a2-3)Gal(b1-4)GlcNAc(b1-3)GalNAc
# How it was run: as §1
binder,measurement,setting,value
B1,glycan array binding signal (z-score),Neu5Ac(a2-3)Gal,-0.002
same,glycan array binding signal (z-score),[1],-0.148
same,glycan array binding signal (z-score),[2],-0.151
same,glycan array binding signal (z-score),[3],-0.498
same,glycan array binding signal (z-score),[4],-0.433
same,glycan array binding signal (z-score),[5],-0.392
same,glycan array binding signal (z-score),[6],-0.043
same,glycan array binding signal (z-score),[7],-0.068
same,glycan array binding signal (z-score),[8],-0.384
same,glycan array binding signal (z-score),[9],-0.603
same,glycan array binding signal (z-score),[10],-0.583
same,glycan array binding signal (z-score),[11],-0.218
same,glycan array binding signal (z-score),[12],0.031
same,glycan array binding signal (z-score),[13],-0.411
same,glycan array binding signal (z-score),[14],0.667
same,glycan array binding signal (z-score),[15],0.814
same,glycan array binding signal (z-score),[16],-0.079
same,glycan array binding signal (z-score),[17],0.129
same,glycan array binding signal (z-score),[18],-0.071
same,glycan array binding signal (z-score),[19],-0.307
same,glycan array binding signal (z-score),[20],-0.244
same,glycan array binding signal (z-score),[21],-0.362
same,glycan array binding signal (z-score),[22],-0.352
same,glycan array binding signal (z-score),Neu5Ac(a2-3)Gal(b1-4)Glc,-0.021
same,glycan array binding signal (z-score),[23],-0.112
same,glycan array binding signal (z-score),[24],0.612
same,glycan array binding signal (z-score),[25],-0.476
same,glycan array binding signal (z-score),[26],-0.45
same,glycan array binding signal (z-score),[27],-0.361
same,glycan array binding signal (z-score),[28],-0.401
same,glycan array binding signal (z-score),[29],-0.294
same,glycan array binding signal (z-score),[30],-0.587
same,glycan array binding signal (z-score),[31],0.7
same,glycan array binding signal (z-score),[32],0.02
same,glycan array binding signal (z-score),[33],-0.245
same,glycan array binding signal (z-score),[34],-0.527
same,glycan array binding signal (z-score),[35],0.123
same,glycan array binding signal (z-score),[36],0.071
same,glycan array binding signal (z-score),[37],-0.498
same,glycan array binding signal (z-score),[38],0.167
same,glycan array binding signal (z-score),[39],-0.314
same,glycan array binding signal (z-score),[40],-0.269
same,glycan array binding signal (z-score),[41],-0.525
same,glycan array binding signal (z-score),[42],-0.102
same,glycan array binding signal (z-score),[43],-0.219
